Experimental data: the supplement of paper PMC11417369
This is one part of the list.

test system: PfAP2-HC AP2 domain (GST-tagged); assay: gcPBM binding intensity (ln(normalized median fluorescence intensity)); higher = stronger DNA binding
Method in brief: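 GST-fused DNA-binding domains of P. falciparum, expressed in E. coli, were applied at about 25 μg on average for 1 h to an Agilent 4 × 180k array of primer-extended double-stranded 36-bp intergenic genomic probes and negative controls. Binding intensity is the highest Masliner-normalised natural-log median intensity across replicate spots of either probe orientation, measured with Alexa488 anti-GST antibody and a 488 nm scan.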

Sequence	gcPBM binding intensity (ln)
AAAAAAAAAAAAAAAACACACATTTCTTTTTCATAT [CACACA_site11]	9.81
ATTTATATATTGCCCACACACATGTGATTATTTATA [CACACA_site1714]	10
ATATTAAAAAGAAGTGTGCGCAAAACATTAACTTGA	10.3
TAAATAAACCTGACTTGTACATGTAAAATAAATATA [XGTACX_site1667]	9.8
AATGGATGGTCCAAATGTACATATATATATATATAT [XGTACX_site4800]	9.85
AGAAAAAATAAAAATAGTACTCAAAAAATTATGAAT [XGTACX_site4908]	9.68
ACATAAATAATAAAAACACACATATGTACAGATATA [CACACA_site5112]	10.2
ATGTAGATATATATATGTACTAATTAGTAGTTTACG [XGTACX_site6275]	10
AATGGTACATGATACACACACGCACATATATATATT [CACACA_site3425]	10.4
AGAAAAAAAAAACACACACACACACCCTCAATATAA [CACACA_site39]	10.5
AAATAGATAAACTAAACACACAAAAAAAAAAAAAAT [CACACA_site1179]	10.2
TTATATGAAAAAATATGTACGTATAATGAGAAATAT [XGTACX_site8987]	9.74
GTTATAAATGCATATACACACATACGTACATACATA [CACACA_site7655]	9.89
TCATTAATCAGGTATGCATGCATAACTATTAAAAAT [TGCATGCA_site90]	9.59
TCTTTTTTTTTTATTTGTACTTATTTTTTTCAAAAA [XGTACX_site3403]	9.68
AAAATAACGAGTCAAACACACATATTTATATTTATA [CACACA_site7050]	9.86
TAATATAACTACATAACACACGAAAATATATGAATC [CACACA_site3628]	10.1
ACTTATAAAATAACATGTACAAATATTTATTATATA [XGTACX_site133]	9.51
AATATTTTTTTATAAACACACATATATATAAATATA [CACACA_site3524]	9.53
TAATAATTTATATATGCATGTCAAAATAATATTAAA [TGCATGCA_site12]	9.35
TATATAAATATAATATGTACATATAATATGTATATA [XGTACX_site8120]	9.69
TATATATTTTTATGTGTGCACTGTTTCATAAAAGAA	9.61
AAAAAAAAAAGGTGTACATGCAAAATAAATTCTTAA [TGCATGCA_site556]	9.86

Sequence	gcPBM binding intensity (ln)
TATGGTAACATATGCTGTACAATATAATATGTTTAA [XGTACX_site1601]	9.59
TAAACATAAATATACACACAAACATATATGTATTTT [CACACA_site1214]	9.89
AAATTATAAATACCTACACACTTATCAAAATAAATT [CACACA_site5280]	9.83
AAAAAAAAAAAACACACACACACACCGACAAAATAT [CACACA_site8411]	10.8
GATGATATATATTAGCGTACATGTATATATACCATT [XGTACX_site6404]	9.7
TAAATGAGAAGGACTGCACACTAAAATGGAAGGAGA [CACACA_site8449]	9.92
TATTTGTATATATGTGTGCACGTATAATCCATTAAA [GTGCAC_site9569]	9.71
AAAATTTCAAATAACACACACTAATATATATCTGTA [CACACA_site4904]	10.1
AATGAATATAGTACTGAATGTAATTTAAGGTTTTCC [CACACA_negctrl_site1548]	9.76
GCATAAATCAAACACACACACATATATATATATATA [CACACA_site2422]	10.2
TATAATGGATGCTAGCTGCACTAATAAGCAAAAATA	9.6
TATATTAAATATTACACACATACATTTAGTGTCAAA [CACACA_site1990]	9.84
TGGGAGCACAGACACACACACACACCGATATATATA [CACACA_site8001]	11.3
AACAAAATAAATGTATGTACATATATATATATATAT [XGTACX_site7974]	9.99
GTGGACGAAATAGTTGTAAATTTATGTGCAAACCTC [XGTACX_negctrl_site564]	9.71
ATATATATATCATATTGTACATACTTGTATTTATAT [XGTACX_site2432]	9.89
TCCTTACCTATTAAAGCATGCTCGAATATATATTTT [TGCATGCA_site53]	9.74
CACACAATGGCTAGCTGTACATAATATATATCTACA [XGTACX_site4691]	9.62
TAAAAACAAAAATGTTGTACATAATATAAAACAATT [XGTACX_site6380]	9.76
TATATAAATATACAAACACACATACAAACATATATA [CACACA_site4754]	10.2
GAAAATAAAATAAATGCATGTAAATTTAATGTAATG [TGCATGCA_site996]	9.87
AAAAAAAACGAACACACACACAAATATGTAAAAATA [CACACA_site6673]	10.5
ATATATATATTTACATGTACACATCTATATATAAAC [XGTACX_site5581]	9.84

Sequence	gcPBM binding intensity (ln)
TTTTTTTTTCATTATTGTACATTGAAACTTCATTTT [XGTACX_site6041]	9.84
AAAAAAAAAAAATGTGCATGCTATATATATATATAT [TGCATGCA_site727]	10
GAATATAAACATATTACACACATCTATCTGTACATT [CACACA_site5114]	9.97
TGGTATCAAAAGAATACACACACACCGACATATATA [CACACA_site9265]	11.1
TACATACATACATACACACACACATATAAATACATA [CACACA_site4626]	10.6
GTTTTATTTATTTCATGTACACAAAAAAGGTTTTAA [XGTACX_site6525]	9.48
TCTCTAACTTTTAATACACACAAATAAATAAATAAA [CACACA_site6245]	9.53
AATACATATATATATTGTACATATAGGGAAAAATTA [XGTACX_site2275]	9.96
AAAATAAAATAATAAAATAAAATAATAATAAAATAA [TGCATGCA_negctrl_site401]	9.73
GTGGGAAACATAAACACACACAAAAAGAAAAAATAG [CACACA_site4810]	10.2
ATATACGCATTAATAACACACAATATGATAACAAAT [CACACA_site3623]	10.2
AATATAATCTTTCAAAAGAAAAAGACTTCATGAAAA [CACACA_negctrl_site1331]	9.35
AAAATGTATGGAATGCTCTTTTTTAAGTATTATATA [GTGCAC_negctrl_site175]	9.5
TATTTTAATATTTGTAGTACAGATTGAAATGACGAA [XGTACX_site4805]	9.56
TTTATTTATTATTAAAGTACTAAAATATATTATTAT [XGTACX_site4887]	9.39
ATACGTATTTTCTTTTGTACATATATATAAAATATT [XGTACX_site2675]	9.7
TATATTTATTAGTTTCGTACGTACAAAGTTATTTTT [XGTACX_site8847]	9.7
AATATTGCACCATTTTGTACATAATATATTCAAATA [XGTACX_site475]	9.65
ACAAAATTGATATATGCACACATATATATATTAAAT [CACACA_site8152]	9.85
GTAGGTTTATATTGTAGTACATACAAACGTTAACAA [XGTACX_site5476]	9.71
TATTTTGTTCTTTCCACACACAAATACCTATCTTGT [CACACA_site7833]	10.2
TTTTTTTTTTGATGTTGTACATATATATTATATAAT [XGTACX_site2765]	9.63
GCTATTTATTTATATTGTACTTTTTTTTTTTTTTTT [XGTACX_site3624]	9.59

Sequence	gcPBM binding intensity (ln)
TTTTTTTTTGGGGGTGCATGCAAGACATATATTTAA [TGCATGCA_site228]	9.65
CATACATATATATATACACACATACATATATATACA [CACACA_site8165]	10.4
ATTCGTGAACTAGCCAAACACACGAAAAAAAAAAAA [CACACA_site3342]	9.73
ATGTAACATAGGAAATGTACATATAAATATAATTTA [XGTACX_site6452]	9.77
TTTTATTGATTATTCATAAATATGCTATTCATCTAA [CACACA_negctrl_site1084]	9.6
TTAGTATATTTTTCCTGTACGTACTCAGATACAAAT [XGTACX_site7397]	9.6
TACACATTATGTATCATACACACAAATAAATATATA [CACACA_site608]	9.8
TTAAATAATTTTTAATGTACATTAAATTTATTATTA [XGTACX_site261]	9.36
AAAAAGAATATAAGTAGTACAGTGCATATAATAATT [XGTACX_site617]	10.2
TTTTACTCTTAAAATAATAAAAAATATTCACATTTA [CACACA_negctrl_site1508]	9.19
AATTAATGTTTTGTCACACAGTATGATTATATATAT [CACACA_site6143]	9.74
TATAATTTTTTTAATACACACAAATATTTATATATA [CACACA_site3042]	9.46
AAGAGAAATGGGCACACACACACATATTATATATAT [CACACA_site1531]	10.8
TATATATACATATACGCATGTAAATTCAAAAGTAAA [TGCATGCA_site956]	9.66
TTCTCCATCAGATACTGTACATAATATATATAATAT [XGTACX_site8827]	9.78
TGTATAACCTGTGTTACACACATTAGAATTTATATA [CACACA_site6393]	9.72
GCATCATTTATTTGCACACCTATTATATACTTTTTA [CACACA_site2098]	9.96
TACATAAACTTTATAACACACACTTATATATATATA [CACACA_site1106]	9.94
TATATAAAGATATATACACACAAAAAAAAAAAAAAA [CACACA_site6778]	9.7
AATAATAACAAATGAACACACATATATATGAGCAAA [CACACA_site2121]	9.96
